# Data published in PubChem BioAssay AID1347043 (National Center for Advancing Translational Sciences (NCATS), 2019).
# Out of some 76,000 compounds screened, about 1,900 (2.5%) were called active. Inconclusive results, whose numbers are uncertain, are shown with a selection of clear calls. The call rests on the fitted dose curve; in most records, active means well fitted inhibition curve with a large enough effect; inconclusive means small, poorly fitted or top-dose-only effect; inactive means flat fitted curve, though single readings scatter. Where the call is inconclusive, the potency comes from a doubtful curve fit.
# Biological target: Luciferin 4-monooxygenase (Photinus pyralis) (UniProt P08659)
# Sequence of UniProt P08659 (P08659 whole entry, looked up): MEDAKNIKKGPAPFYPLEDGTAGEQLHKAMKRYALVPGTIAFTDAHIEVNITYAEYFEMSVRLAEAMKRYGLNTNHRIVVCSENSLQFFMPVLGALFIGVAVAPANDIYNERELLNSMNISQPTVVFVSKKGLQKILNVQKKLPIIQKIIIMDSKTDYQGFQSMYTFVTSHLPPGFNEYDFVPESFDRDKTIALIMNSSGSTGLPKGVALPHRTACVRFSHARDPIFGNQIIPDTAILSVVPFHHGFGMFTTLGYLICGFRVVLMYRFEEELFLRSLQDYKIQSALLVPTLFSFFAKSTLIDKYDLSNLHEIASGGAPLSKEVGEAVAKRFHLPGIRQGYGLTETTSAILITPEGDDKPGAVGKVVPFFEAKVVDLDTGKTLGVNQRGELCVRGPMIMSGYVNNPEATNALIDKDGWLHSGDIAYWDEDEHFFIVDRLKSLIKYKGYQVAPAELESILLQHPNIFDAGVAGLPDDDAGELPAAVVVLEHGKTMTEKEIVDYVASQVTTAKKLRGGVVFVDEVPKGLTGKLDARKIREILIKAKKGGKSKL
# Assay: Firefly luciferase inhibition profiling of diverse chemical library using quantitative high-throughput screening; further: nearly all actives have a fitted effect of over 65% in size
# Conditions: purified P. pyralis luciferase, luminescence, biochemical; series mostly up to 115 µM
# How it was run: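 Luminescence read by CCD imager after adding enzyme (10nM final) to wells holding compound, titrated in qHTS. Substrates 10uM each D-luciferin and ATP; buffer 50mM Tris acetate pH 7.5, 10mM Mg acetate, Tween-20, BSA.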
# Potency means the concentration at half of the fitted maximal effect; tags describe the fitted curve by direction and shape.
row,Compound,Potency
1,COCCNc1ncc(-c2ccsc2)c2c1OCC2,active: 22.4 µM
2,COCC(=O)NC[C@@H]1C=C(C)[C@H](Cc2nc3ccc(Cl)cc3[nH]2)C[C@H]1C(C)C,inactive
3,O=c1c2nc(OCc3ccc(C(F)(F)F)cc3)ccc2ncn1C1CC1,"inconclusive: 44.7 µM [inhibitor, partial curve]"
4,CC(c1ccon1)N(C)C(=O)c1cccc(CC2CCNCC2)c1 (stereo not given),inactive
5,O=C(Nc1ccc(F)cc1F)c1cc(-c2ccc[nH]2)n[nH]1,active: 14.1 µM
6,COc1ccc(C(=O)N2CCC(c3nn(-c4ccccc4)c(=O)[nH]3)CC2)cc1,inactive
7,Cc1ccc2oc([C@H]3CCN(Cc4ccccn4)C3)nc2c1,"inconclusive: 50.1 µM [inhibitor, full curve]"
8,O=C(c1ccncc1)N1CCC(Oc2ccc(-c3noc(-c4ccccc4)n3)cc2)C1 (stereo not given),active: 14.1 µM
9,O=C(NC1CCCN(c2cc(-c3ccccc3)[nH]n2)C1)c1ccccc1Br (stereo not given),"inconclusive: 39.8 µM [inhibitor, partial curve]"
10,CC(C)(O)CCc1ccc(C(=O)NCCSc2ccccn2)cc1,active: 2.82 µM
11,CN1c2cc(C(=O)Nc3ccc(OC(F)(F)F)cc3)ccc2C(=O)N2CCCCC21 (stereo not given),"inconclusive: 44.7 µM [inhibitor, partial curve]"
12,CCN(CC)C(=O)c1cc2c(s1)CCC(C(=O)O)C2 (stereo not given),inactive
13,COc1cccc(Nc2cc3c(cn2)CN(Cc2ccncc2)CCN3)c1,"inconclusive: 70.8 µM [inhibitor, partial curve]"
14,Cc1cccc(Nc2nc(N)nc(CN3CC[C@@](O)(C4CCC4)[C@H](C)C3)n2)c1,inactive
15,COc1ccc(CC(=O)NCc2cccc(SC)c2)cc1,"inconclusive: 44.7 µM [inhibitor, partial curve, poor fit]"
16,COc1ccc(C(=O)N[C@@H]2CN(C(=O)Nc3cccc(C#N)c3)CCC[C@H]2O)cc1,"inconclusive: 126 µM [inhibitor, single point]"
17,CCCS(=O)(=O)N1CC(N(Cc2cccnc2)CC(C)C)C1,inactive
18,O=C(O)CCn1ncc2cc(OC3CCN(C(=O)OCc4ccccc4)CC3)ccc21,"inconclusive: 89.1 µM [inhibitor, partial curve]"
19,O=C(NCCc1ccccc1)C1CCN(C(=O)c2ncn3c2COC(c2ccc(Cl)cc2)C3)CC1 (stereo not given),"inconclusive: 50.1 µM [inhibitor, partial curve]"
20,COC(=O)[C@@H]1Cc2ncn(Cc3ccccc3)c2CN1C(=O)c1ccc(OC)cc1,inactive
21,CCN(CC)C(=O)c1ccc(-c2nnc3ccc(NC(=O)C4CC4)cn23)cc1,"inconclusive: 39.8 µM [inhibitor, partial curve]"
22,CN(C)c1ccc(-c2ccnc(N[C@H]3CO[C@H]4[C@@H]3OC[C@@H]4NC(=O)NCc3ccccc3)n2)cc1,"inconclusive: 79.4 µM [inhibitor, partial curve, poor fit]"
23,O[C@@H]1C[C@@H](c2nc(-c3ccc4c(c3)OCO4)no2)N(Cc2ccncc2)C1,"inconclusive: 63.1 µM [inhibitor, full curve]"
24,O=C(NCC1CN(C(=O)Cc2cccc(OC(F)(F)F)c2)CC12CN(c1ccccc1)C2)c1ccccc1 (stereo not given),inactive

row,Compound,Potency
1,COc1ccc(NC(=O)c2ccc3c(c2)N(C)C2CCCCCN2C3=O)cc1Cl (stereo not given),inactive
2,CCS(=O)(=O)Nc1ccc(-c2nc(C3CCOC3)no2)cc1 (stereo not given),inactive
3,CC(C)c1noc(C2CCCN2C(=O)c2cc(-c3cccs3)n(C)n2)n1 (stereo not given),active: 31.6 µM
4,COC[C@H]1CCCN1Cc1cn(-c2ccccc2)nc1-c1ccc(OC)cc1F,"inconclusive: 50.1 µM [inhibitor, partial curve, poor fit]"
5,c1ccc(OCc2noc(-c3ccc(NC4CCSC4)nc3)n2)cc1 (stereo not given),"inconclusive: 63.1 µM [inhibitor, partial curve]"
6,Cc1ccc(-n2c(C3CCN(C(=O)c4cc(F)ccc4F)CC3)n[nH]c2=O)cc1,inactive
7,COc1ccc(CNC(=O)C2CCN(C(=O)c3ncn4c3COC(c3ccc(C)cc3)C4)CC2)cc1 (stereo not given),active: 39.8 µM
8,Cc1ccc(C(=O)N(C)Cc2cccn2C)cc1,"inconclusive: 100 µM [inhibitor, partial curve]"
9,CC(=O)Nc1cccc(C(=O)N2CCCN(c3cc(-c4ccc(C)c(C)c4)[nH]n3)CC2)c1,"inconclusive: 79.4 µM [inhibitor, partial curve, poor fit]"
10,Cc1ccc(-n2nc(C)c([C@H]3C=C[C@@H](OC(=O)Nc4cccc(C(F)(F)F)c4)C3)c2C)cc1Cl,active: 11.2 µM
11,Cc1cn2nnc(C(=O)NCc3ccc4c(c3)OCO4)c2c(=O)[nH]1,active: 39.8 µM
12,Fc1ccc(CN2Cc3[nH]cnc3C[C@H]2c2nc(-c3ccccc3)no2)cc1,active: 44.7 µM
13,O=C(NCC1CCCO1)N1CCc2c(nc3cc(-c4ccccc4Cl)[nH]n3c2=O)C1 (stereo not given),"inconclusive: 50.1 µM [inhibitor, partial curve]"
14,CC(=O)N1CCC(N2CC3(C2)C(=O)N(Cc2ccccc2Cl)C(=O)[C@@H]2C[C@@H](O)CN23)CC1,inactive
15,COc1ccccc1CNC(=O)C1CCN(C(=O)c2ncn3c2COC(c2ccc(F)cc2)C3)CC1 (stereo not given),"inconclusive: 44.7 µM [inhibitor, partial curve]"
16,COc1cccc(-c2cc(C(=O)NCCc3n[nH]c(=O)n3C)[nH]n2)c1,"inconclusive: 44.7 µM [inhibitor, partial curve]"
17,Cc1cc(-c2cc3c(cn2)CN(CC2CCOC2)CCN3)ccn1 (stereo not given),"inconclusive: 44.7 µM [inhibitor, partial curve]"
18,Cc1cccc(CNC(=O)c2cc(NC(=O)C(C)C)cc3nc(C)ccc23)c1,"inconclusive: 50.1 µM [inhibitor, partial curve, poor fit]"
19,COc1ccc(NC(=O)N2CC[C@@H](CC(=O)O)[C@@H](CCN3CCOCC3)C2)cc1,"inconclusive: 112 µM [inhibitor, partial curve]"
20,O=c1cc(-c2ccncc2)oc2c(-c3ccccc3O)nccc12,inactive
21,CCOc1ccccc1C1NC(=O)N(CC(=O)Nc2ccc(F)cc2)C2=C1C(=O)OC2 (stereo not given),inactive
22,COCCN1CCNc2cc(-c3cc(Cl)ccc3OC)ncc2C1,"inconclusive: 126 µM [inhibitor, single point]"
23,FC(F)(F)C1CN(c2ccc3cc(Cl)ccc3n2)CCO1 (stereo not given),active: 25.1 µM
24,CC1(COCC2CC2)COc2ccc(C(=O)Nc3cccnc3)cc2N1 (stereo not given),"inconclusive: 126 µM [inhibitor, single point]"

row,Compound,Potency
1,CCNc1cc(N2CCC(CCC(=O)Nc3ccc(C)cc3C)CC2)ncn1,"inconclusive: 39.8 µM [inhibitor, partial curve]"
2,Cc1ccc(NC(=O)Nc2cccn3nc(C)nc23)cc1,active: 7.94 µM
3,COc1cccc(-c2nc(CN3CCCC3=O)no2)c1,"inconclusive: 44.7 µM [inhibitor, partial curve, poor fit]"
4,CC(=O)N1CCC(C(=O)NC2CCCN(c3cc(-c4ccc(Cl)cc4)[nH]n3)C2)CC1 (stereo not given),"inconclusive: 35.5 µM [inhibitor, partial curve]"
5,Fc1ccc(Nc2cc3c(cn2)CN(Cc2ccccc2)CCN3)cc1,"inconclusive: 50.1 µM [inhibitor, partial curve, poor fit]"
6,O=C(NCc1ccccc1F)c1ccc(-c2ccc(N3CCSCC3)nc2)cc1,"inconclusive: 44.7 µM [inhibitor, partial curve, poor fit]"
7,CC(C)Cc1cc(C(=O)N2CCC(n3cc(-c4ccccn4)nn3)CC2)on1,"inconclusive: 50.1 µM [inhibitor, partial curve]"
8,C[C@@H]1C(=O)O[C@H]2[C@H]1CC[C@@]1(C)Cc3sc(NC(=O)COc4ccccc4)nc3[C@@H](C)[C@H]21,inactive
9,COc1ccc(-c2cc3c(=O)n(CCNC(=O)c4ccc(OC)cc4OC)ccn3n2)cc1,"inconclusive: 25.1 µM [inhibitor, full curve]"
10,COc1cccc2c1OCC(CNC(=O)CCn1nnc3ccccc31)C2 (stereo not given),inactive
11,Cc1ccc(NC(=O)c2cc(-c3ccc[nH]3)n[nH]2)cc1F,active: 8.91 µM
12,CN(C)S(=O)(=O)N1CCc2nc3cc(-c4ccccc4)[nH]n3c(=O)c2C1,active: 0.447 µM
13,O=C(NCc1nnc2n1CCC2)c1ccc2nc(-c3ccc(F)cc3)cn2c1,"inconclusive: 50.1 µM [inhibitor, partial curve]"
14,CNCCN1C(=O)CC[C@H]2CN(C(=O)c3cnc4nc(C)[nH]n4c3=O)CC[C@H]21,inactive
15,COCCN1C(=O)CCc2cc(NC(=O)c3ccc(F)cc3)ccc21,"inconclusive: 44.7 µM [inhibitor, partial curve]"
16,COc1ccc(-c2ccnc3nc(-c4ccccc4OC)nn23)c(F)c1,"inconclusive: 50.1 µM [inhibitor, partial curve]"
17,Cc1ccc2nc(-c3ccc(F)cc3)c(CN3CCCC(C(N)=O)C3)cc2c1 (stereo not given),"inconclusive: 39.8 µM [inhibitor, full curve]"
18,CCOc1ccccc1CNC(=O)c1c(C)noc1-c1cccs1,inactive
19,COc1ccc(CN2Cc3[nH]nc(-c4cccc(NC(C)=O)c4)c3CC2=O)cc1,inactive
20,CN1CCN(C(=O)c2ccc(-c3ccc(N4CCSCC4)nc3)cc2)CC1,active: 35.5 µM
21,COc1ccc(-c2cc(N3CCCC(NC(=O)c4ccsc4)C3)n[nH]2)cc1 (stereo not given),active: 14.1 µM
22,COc1ccc(-c2cc(N3CCCN(C(=O)c4ccc(C)s4)CC3)n[nH]2)cc1,"inconclusive: 39.8 µM [inhibitor, partial curve]"
